Publication PMC4336329 (PLoS ONE, 2015)
Screen size: about 310,000 compounds; about 2,200 (0.71%) showed an effect of 50% or more. The effect is printed as a negative number. The list shows a part of the results.

Target: human ether-à-go-go-related gene (hERG) potassium channel (human, UniProt Q12809)
Assay: primary screen, population patch clamp on CHO cells stably expressing hERG

Sequence of human ether-à-go-go-related gene (hERG) potassium channel (Q12809 whole entry, looked up): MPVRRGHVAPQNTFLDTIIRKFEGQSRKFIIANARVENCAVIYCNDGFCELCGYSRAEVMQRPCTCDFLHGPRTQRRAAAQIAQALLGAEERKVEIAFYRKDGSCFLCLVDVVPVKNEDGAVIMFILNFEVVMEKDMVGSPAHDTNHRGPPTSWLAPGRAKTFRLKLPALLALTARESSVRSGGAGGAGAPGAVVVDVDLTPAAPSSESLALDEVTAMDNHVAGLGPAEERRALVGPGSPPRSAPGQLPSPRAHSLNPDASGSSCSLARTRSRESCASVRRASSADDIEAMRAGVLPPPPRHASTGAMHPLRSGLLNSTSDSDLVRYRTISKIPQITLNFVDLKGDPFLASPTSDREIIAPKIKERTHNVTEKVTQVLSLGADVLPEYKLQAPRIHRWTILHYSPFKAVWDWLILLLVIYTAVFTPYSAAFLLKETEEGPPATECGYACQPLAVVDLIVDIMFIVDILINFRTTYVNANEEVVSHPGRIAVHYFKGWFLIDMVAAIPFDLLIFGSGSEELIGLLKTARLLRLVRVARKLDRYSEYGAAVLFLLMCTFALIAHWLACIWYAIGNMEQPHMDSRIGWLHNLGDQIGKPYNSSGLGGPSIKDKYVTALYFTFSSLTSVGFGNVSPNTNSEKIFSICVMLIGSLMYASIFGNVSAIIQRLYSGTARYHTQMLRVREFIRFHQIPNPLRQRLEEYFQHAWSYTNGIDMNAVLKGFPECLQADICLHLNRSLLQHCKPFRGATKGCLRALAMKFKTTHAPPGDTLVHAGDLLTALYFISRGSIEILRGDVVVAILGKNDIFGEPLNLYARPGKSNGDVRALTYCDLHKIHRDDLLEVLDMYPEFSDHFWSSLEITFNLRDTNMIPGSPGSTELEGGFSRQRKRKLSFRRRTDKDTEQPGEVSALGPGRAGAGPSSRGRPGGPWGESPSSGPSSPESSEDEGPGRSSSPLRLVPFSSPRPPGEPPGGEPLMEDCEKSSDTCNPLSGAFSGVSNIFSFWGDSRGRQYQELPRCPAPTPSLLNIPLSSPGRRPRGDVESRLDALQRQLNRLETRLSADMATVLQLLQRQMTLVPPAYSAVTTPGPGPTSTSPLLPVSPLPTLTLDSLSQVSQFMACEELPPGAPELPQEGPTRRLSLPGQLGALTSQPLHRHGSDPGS

SMILES | hERG current change (%, negative = inhibition) at 1uM [%]
CCOc1ccccc1N1CCN(C(=O)C2CSC3(C)CCC(=O)N23)CC1 (stereo not shown) | 5.01
CC1CCN(C(=O)C2Cc3ccccc3CN2S(=O)(=O)c2ccc(F)cc2)CC1 (stereo not shown) | 8.64
Cl.O=C(O)CCCCCNc1nc(-c2ccccc2)nc2ccccc12 | 2.37
CC(=O)NCCC(=O)N1CCc2c([nH]c3ccccc23)C1c1cccc(C)c1 (stereo not shown) | 7.12
O=c1[nH]c(=O)n(-c2ccccc2)c(O)c1C=NC12CN3CN(CN(C3)C1)C2 | 12.3
O=C(O)C1C2C=CC(C2)C1C(=O)NCc1ccccc1 (stereo not shown) | 6.75
Cc1cc(Oc2cc(N)cc([N+](=O)[O-])c2)ccc1Cl | 6.54
CC(C)C(=O)Nc1ncc(Cc2cccc(Cl)c2)s1 | 8.51
CCOC(=O)C1CCCN(C(=O)COC(=O)c2ccc(C#N)cc2)C1 (stereo not shown) | 11.3
COc1ccccc1N(C)S(=O)(=O)c1ccc(Cl)c(C(=O)NCC2(N(C)C)CCCCC2)c1 | -6.59
COc1ccc(Cl)cc1NC(=O)CN(C)C(=O)Cc1ccc2c(c1)CCC2 | 10.8
O=C(NCCCN1CCOCC1)C1CCCN(S(=O)(=O)N2CCCCC2)C1 (stereo not shown) | 47.8
CC(=O)Nc1cccc(NC(=O)CCCC2CCCCC2)c1 | 13.3
CCCCn1c(-c2cccs2)nc2nc3ccccc3nc21 | 1.91
Cc1ccc(C)c(CN2C(=O)C(C)Oc3ccc(C)cc32)c1 (stereo not shown) | 6.4
O=C1CCCN1CCCn1cnc2c([nH]c3ccc(F)cc32)c1=O | -4.32
Cc1nn(CCCC(=O)NCc2ccccc2)c(=O)c2nn(-c3ccccc3)c(C)c12 | 9.77
O=C1Nc2cc(Cl)cnc2N2CCCC12 (stereo not shown) | 5.76
O=C(CSc1nc2ccccc2s1)Nc1ccc(Cl)c(C(=O)O)c1 | 17.6
CCOC(=O)[C@@H]1[C@H]2COc3ccccc3[C@@H]2N2C(=O)N(c3ccc(F)cc3)C(=O)[C@]12C | 8.73
CC(=O)c1c(C)[nH]c(C(=O)COc2cc(C)cc(C)c2)c1C | 9.98
COCCNCC(=O)N1c2ccccc2Sc2ccccc21 | 12.9
Cc1nn(Cc2ccccc2)c(Cl)c1/C=C/C(=O)OCC(=O)NC(C)C(C)C (stereo not shown) | 14.8
CCOC(=O)c1nn(-c2ccccc2)c2nnc(Cc3ccc(C)cc3)c(=O)n12 | 22
CN(C)S(=O)(=O)c1cccc(NC(=O)c2ccc(S(=O)(=O)N3CCCCC3)cc2)c1 | 17.2
